The other results are listed elsewhere or left out.
B1: PhoQ; a variant is named by its letters at X, in order, P23837 (parent)
chain: MKKLLRLFFPLSLRVRFLLATAAVVLVLSLAYGMVALIGYSVSFDKTTFRLLRGESNLFYTLAKWENNKLHVELPENIDKQSPTMTLIYDENGQLLWAQRDVPWLMKMIQPDWLKSNGFHEIEADVNDTSLLLSGDHSIQQQLQEVREDDDDAEMTHSVAVNVYPATSRMPKLTIVVVDTIPVELKSSYMVWSWFIYVLSANLLLVIPLLWVAAWWSLRPIEALAKEVRELEEHNRELLNPATTRELTSLVRNLNRLLKSERERYDKYRTTLTDLTHSLKTPLXXLQXXLRSLRSEKMSVSDAEPVMLEQISRISQQIGYYLHRASMRGGTLLSRELHPVAPLLDNLTSALNKVYQRKGVNISLDISPEISFVGEQNDFVEVMGNVLDNACKYCLEFVEISARQTDEHLYIVVEDDGPGIPLSKREVIFDRGQRVDTLRPGQGVGLAVAREITEQYEGKIVAGESMLGGARMEVIFGRQHSAPKDE

Variants of: B1
Test: enrichment ratio after two sorts for PhoP signalling (ratio (wild type AVST 3.29)); higher = more functional
Settings: with PhoP (E. coli)

Variant	enrichment ratio
YSTG	≤ 0.25
LKRE	≤ 0.25
ACSP	0.356
SDVC	11.5
IKTI	≤ 0.25
KPMH	≤ 0.25
LDMT	≤ 0.25
ILMK	≤ 0.25
GFSG	≤ 0.25
YAHF	≤ 0.25
FLPG	≤ 0.25
RKSK	≤ 0.25
YGHF	≤ 0.25
YTEY	≤ 0.25
KIHC	≤ 0.25
WVSC	≤ 0.25
LEMI	≤ 0.25
DVDR	≤ 0.25
PECY	≤ 0.25
NFGE	≤ 0.25
SKCL	11.8
LMHE	≤ 0.25
SYLQ	2.49
KPFM	≤ 0.25

Variant	enrichment ratio
DAFC	≤ 0.25
PIMC	≤ 0.25
ENYA	≤ 0.25
PPHC	≤ 0.25
PCCC	≤ 0.25
FFVP	≤ 0.25
EMGT	≤ 0.25
NNLS	≤ 0.25
LITP	≤ 0.25
QPNM	≤ 0.25
AIMF	0.847
GEHH	≤ 0.25
DLIC	≤ 0.25
QLDT	≤ 0.25
RNAN	≤ 0.25
TEIV	≤ 0.25
RQET	≤ 0.25
AWTW	≤ 0.25
TTPQ	≤ 0.25
WHQF	≤ 0.25
LMHW	≤ 0.25
SDIS	0.255
YHVD	≤ 0.25
CPLS	≤ 0.25

Variant	enrichment ratio
PVGY	≤ 0.25
PVRN	≤ 0.25
VWMI	≤ 0.25
GPKI	≤ 0.25
WLHC	≤ 0.25
HPIR	≤ 0.25
FYSH	≤ 0.25
NQAV	≤ 0.25
VAFL	3.05
IQAC	≤ 0.25
DIYT	≤ 0.25
IDGV	≤ 0.25
MHRL	≤ 0.25
LQYH	≤ 0.25
WIWP	≤ 0.25
RVFP	≤ 0.25
FIDR	≤ 0.25
QHTE	≤ 0.25
KENM	≤ 0.25
NIIR	≤ 0.25
WLCS	≤ 0.25
TEYM	≤ 0.25
GYLY	≤ 0.25
MIYP	≤ 0.25

Variant	enrichment ratio
KGDF	≤ 0.25
KLHN	≤ 0.25
MCLS	3.86
YLRC	0.276
QPTL	≤ 0.25
KLRA	≤ 0.25
PAFK	≤ 0.25
MNLS	3.95
PPQQ	≤ 0.25
IDYR	≤ 0.25
GSVV	2.64
TLID	≤ 0.25
RTLI	≤ 0.25
SDNK	≤ 0.25
HVPA	≤ 0.25
EFDA	≤ 0.25
QNFQ	≤ 0.25
TTIL	≤ 0.25
KGFI	≤ 0.25
IIPC	≤ 0.25
FNDQ	≤ 0.25
SIRI	≤ 0.25
FRKM	≤ 0.25
MKLF	≤ 0.25

Variant	enrichment ratio
RCCI	≤ 0.25
EHGK	≤ 0.25
TFDK	≤ 0.25
NCYT	≤ 0.25
DKAW	≤ 0.25
SYWK	≤ 0.25
QEHE	≤ 0.25
QEYW	≤ 0.25
SEDC	≤ 0.25
ICWE	≤ 0.25
LQLC	≤ 0.25
NTTM	≤ 0.25
KFWI	≤ 0.25
EYIK	≤ 0.25
WHPS	≤ 0.25
TYRI	≤ 0.25
GLDV	≤ 0.25
YKEF	≤ 0.25
VDAI	≤ 0.25
ERWM	≤ 0.25
NAWN	≤ 0.25
MCVL	≤ 0.25
HKVK	≤ 0.25
GSNE	≤ 0.25

Variant	enrichment ratio
KNDH	≤ 0.25
EAWL	≤ 0.25
MMNM	≤ 0.25
SPKE	≤ 0.25
WKLS	≤ 0.25
QHND	≤ 0.25
QTLW	≤ 0.25
DWNC	≤ 0.25
ATTS	9.63
LHMA	≤ 0.25
GNHR	≤ 0.25
QFHI	≤ 0.25
RLDQ	≤ 0.25
FIQR	≤ 0.25
NRQI	≤ 0.25
RFFS	≤ 0.25
SSMY	10.5
SRAG	≤ 0.25
LYEC	≤ 0.25
YHTC	≤ 0.25
QIMR	≤ 0.25
QLLM	≤ 0.25
NESN	≤ 0.25
RGAV	≤ 0.25

Variant	enrichment ratio
LWLQ	≤ 0.25
YTMR	≤ 0.25
KNTT	≤ 0.25
IYKT	≤ 0.25
HECG	≤ 0.25
KPRL	≤ 0.25
HLII	≤ 0.25
WFGH	≤ 0.25
HTIM	≤ 0.25
TQQE	44.9
RHHV	≤ 0.25
EIGA	≤ 0.25
FDKP	≤ 0.25
TWWK	≤ 0.25
FTFN	≤ 0.25
HDMS	≤ 0.25
FFEG	≤ 0.25
FWSA	≤ 0.25
HWLN	≤ 0.25
TQHA	≤ 0.25
AQDY	≤ 0.25
LPKQ	≤ 0.25
PQEA	≤ 0.25
GGWI	≤ 0.25

Variant	enrichment ratio
VQTN	≤ 0.25
MILG	5.28
QQCS	≤ 0.25
STFW	≤ 0.25
QVML	≤ 0.25
MGLW	≤ 0.25
LEPP	≤ 0.25
KTVY	≤ 0.25
NDWQ	≤ 0.25
TMRE	≤ 0.25
MPDY	≤ 0.25
SVTR	8.52
KDEY	≤ 0.25
TGAK	≤ 0.25
DEMV	≤ 0.25
FLIP	≤ 0.25
RGVM	≤ 0.25
KLQP	≤ 0.25
WNGG	0.557
TFVT	≤ 0.25
DMYF	≤ 0.25
SEKT	≤ 0.25
QIHH	≤ 0.25
SQWS	0.878

Variant	enrichment ratio
PGYV	≤ 0.25
IQCK	≤ 0.25
LFND	≤ 0.25
EFHE	≤ 0.25
DTMM	≤ 0.25
MDRV	≤ 0.25
YATL	2.48
SCSI	8.62
WKVS	≤ 0.25
TRGT	≤ 0.25
DEIG	≤ 0.25
WPFD	≤ 0.25
LNSR	≤ 0.25
NQLP	≤ 0.25
PPLL	≤ 0.25
DHHP	≤ 0.25
TILN	0.661
QVYA	≤ 0.25
DTAP	≤ 0.25
FVAH	≤ 0.25
CHPF	≤ 0.25
QGNC	≤ 0.25
DYHE	≤ 0.25
AQYK	≤ 0.25

Variant	enrichment ratio
TAWW	≤ 0.25
GRCT	≤ 0.25
GCIT	≤ 0.25
DTYK	≤ 0.25
VPNI	≤ 0.25
PIPK	≤ 0.25
TMRI	≤ 0.25
KNAA	≤ 0.25
YQNQ	0.253
FIQH	≤ 0.25
NWYN	≤ 0.25
MVTP	≤ 0.25
APEA	≤ 0.25
TAHL	17.4
KSHI	≤ 0.25
ESIM	2.63
KIYL	≤ 0.25
EYHL	≤ 0.25
SVWH	≤ 0.25
QWAR	≤ 0.25
QHFD	≤ 0.25
GQQV	≤ 0.25
HTRR	≤ 0.25
NTDD	≤ 0.25

Variant	enrichment ratio
ILHF	≤ 0.25
PHGV	≤ 0.25
PQKL	≤ 0.25
MFCK	≤ 0.25
WFAM	5.18
WTAW	≤ 0.25
VFIR	0.702
YSPP	≤ 0.25
YFSP	≤ 0.25
EQTF	≤ 0.25
LHKR	≤ 0.25
KISL	≤ 0.25
WRMR	≤ 0.25
YPLA	≤ 0.25
AQWV	≤ 0.25
GDSW	≤ 0.25
WLRQ	≤ 0.25
GWCD	≤ 0.25
NNLR	≤ 0.25
APTT	≤ 0.25
NDPQ	≤ 0.25
LDAA	≤ 0.25
DCRN	≤ 0.25
ALPV	≤ 0.25

Variant	enrichment ratio
FNQT	≤ 0.25
VDAA	≤ 0.25
YCHR	≤ 0.25
QFCH	≤ 0.25
TCKL	≤ 0.25
RQYI	≤ 0.25
HGRI	≤ 0.25
NFAD	≤ 0.25
FNMR	≤ 0.25
IRLM	≤ 0.25
RMCC	≤ 0.25
ACGT	4.5
EDPR	≤ 0.25
GQYE	≤ 0.25
TCGI	25
ADII	1.41
TKMM	31.6
NLYW	≤ 0.25
WQHF	≤ 0.25
QLTV	≤ 0.25
ICYM	≤ 0.25
FQTQ	≤ 0.25
ISMA	≤ 0.25
GELK	≤ 0.25

Variant	enrichment ratio
TPEF	≤ 0.25
RVEG	≤ 0.25
PTCF	≤ 0.25
YSRM	≤ 0.25
KRSG	≤ 0.25
FTME	2.04
SNTH	7.23
YMHE	≤ 0.25
THES	≤ 0.25
RFMD	≤ 0.25
HLWA	≤ 0.25
QKST	≤ 0.25
SMLM	7.16
KCRH	≤ 0.25
WSLN	≤ 0.25
KMRM	≤ 0.25
SHSL	0.469
KIPS	≤ 0.25

— a collection of fitness landscapes (doi:10.1126/science.1257360)
